# Experimental data: PubChem BioAssay (NCI)
#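 Grown in 96-well plates, cells were treated for 48 hours with each compound at five concentrations. Insufficient inhibition: endpoint recorded as highest concentration tested. Here, GI50 denotes the concentration required for 50% inhibition of growth. TGI: total growth inhibition.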
# Tested on: NCI-H322M lung
# Experiment: DTP human tumour cell line panel, 48 h
Compound,GI50 [µM],TGI [µM]
O=C(CSc1nnc(-c2ccc(-c3nc4ccc(Cl)cc4[nH]3)cc2)o1)Nc1ccc(Cl)cc1,3.31,15.5
Cc1ccc(-c2nc(C#N)c(S(=O)(=O)N3CCN(S(=O)(=O)c4ccccc4)CC3)o2)cc1,> 100,> 100
COc1ccc2[nH]cc(-c3cc4nc(-c5cn(C)c6ncccc56)cc(N)n4n3)c2c1,4.9,19.4
COc1cc2cc(C(=O)N3C[C@@H](CCl)c4c3cc(OC(=O)N(C)CCSSCCN3CCOCC3)c3ccccc43)[nH]c2c(OC)c1OC,0.298,1.19
